In publication PMC6155137:
These are yes or no findings as the source states them, for the method shown. In cells and extracts the contact can be indirect. Some results given as binding are weak or reduced against the parent protein; the word gives no strength. For some assays here: Sequences can lack the tags named with a protein. Blank lines part the entries; values can stand above or below the molecule they belong to.

Amino acid sequences for entries named in this document (tags omitted). Residues count along the entry.
UniProt Q9UNE7: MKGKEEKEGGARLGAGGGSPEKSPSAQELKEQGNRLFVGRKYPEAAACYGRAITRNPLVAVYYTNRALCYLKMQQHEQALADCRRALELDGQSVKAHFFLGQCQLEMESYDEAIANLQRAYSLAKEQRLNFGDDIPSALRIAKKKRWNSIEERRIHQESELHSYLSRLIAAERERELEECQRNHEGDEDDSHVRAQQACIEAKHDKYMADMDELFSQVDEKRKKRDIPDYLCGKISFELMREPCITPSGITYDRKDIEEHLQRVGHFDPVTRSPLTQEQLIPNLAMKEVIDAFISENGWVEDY
UniProt P38646, residues 47-679: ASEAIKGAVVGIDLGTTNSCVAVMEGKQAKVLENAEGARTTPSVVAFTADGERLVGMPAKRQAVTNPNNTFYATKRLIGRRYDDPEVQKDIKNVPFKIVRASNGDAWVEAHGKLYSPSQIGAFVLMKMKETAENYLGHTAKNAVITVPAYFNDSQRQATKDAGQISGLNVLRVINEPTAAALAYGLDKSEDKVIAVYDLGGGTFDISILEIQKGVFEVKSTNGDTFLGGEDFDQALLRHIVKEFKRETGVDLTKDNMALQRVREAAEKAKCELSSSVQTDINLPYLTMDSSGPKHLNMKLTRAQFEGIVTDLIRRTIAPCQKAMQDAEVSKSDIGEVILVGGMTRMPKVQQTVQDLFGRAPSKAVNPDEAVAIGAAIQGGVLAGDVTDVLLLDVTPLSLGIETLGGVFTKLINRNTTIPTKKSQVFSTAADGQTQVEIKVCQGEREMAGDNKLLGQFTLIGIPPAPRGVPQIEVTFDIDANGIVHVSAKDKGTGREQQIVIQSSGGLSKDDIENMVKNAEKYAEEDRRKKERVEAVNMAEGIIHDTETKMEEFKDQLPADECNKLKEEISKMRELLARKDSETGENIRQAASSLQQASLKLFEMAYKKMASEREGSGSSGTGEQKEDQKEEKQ

What was measured:
[1] = target: T1, proto-Dbl (dbl proto-oncogene product), endogenous in SKOV-3 cells (human (endogenous in SKOV-3)) (UniProt P10911); assay: co-IP; endogenous CHIP co-immunoprecipitated by Dbl Ab in SKOV-3 cells (with and without GRP75 knockdown)
T1 sequence: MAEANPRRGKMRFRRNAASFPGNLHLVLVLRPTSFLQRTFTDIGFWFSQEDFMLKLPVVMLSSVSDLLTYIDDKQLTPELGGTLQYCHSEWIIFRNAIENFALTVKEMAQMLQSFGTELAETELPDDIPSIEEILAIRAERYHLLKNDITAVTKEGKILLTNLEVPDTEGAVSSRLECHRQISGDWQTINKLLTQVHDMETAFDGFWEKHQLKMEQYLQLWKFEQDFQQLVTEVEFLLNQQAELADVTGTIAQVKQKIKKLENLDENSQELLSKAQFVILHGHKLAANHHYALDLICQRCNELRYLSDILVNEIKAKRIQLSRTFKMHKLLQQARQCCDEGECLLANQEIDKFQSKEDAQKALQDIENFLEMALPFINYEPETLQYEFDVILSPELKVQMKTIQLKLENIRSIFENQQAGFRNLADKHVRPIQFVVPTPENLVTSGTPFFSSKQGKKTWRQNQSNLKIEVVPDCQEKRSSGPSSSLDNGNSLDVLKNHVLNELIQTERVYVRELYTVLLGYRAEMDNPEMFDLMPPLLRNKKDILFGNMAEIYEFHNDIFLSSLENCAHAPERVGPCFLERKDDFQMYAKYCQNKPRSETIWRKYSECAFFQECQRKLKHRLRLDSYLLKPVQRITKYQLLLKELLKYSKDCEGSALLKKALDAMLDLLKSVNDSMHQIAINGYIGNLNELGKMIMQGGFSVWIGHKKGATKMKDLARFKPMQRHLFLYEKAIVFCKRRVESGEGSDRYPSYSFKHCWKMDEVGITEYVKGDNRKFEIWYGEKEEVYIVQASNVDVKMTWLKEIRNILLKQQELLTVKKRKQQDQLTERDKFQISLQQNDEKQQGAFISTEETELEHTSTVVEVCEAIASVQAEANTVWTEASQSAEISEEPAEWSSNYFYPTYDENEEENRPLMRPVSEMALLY

[2] = target: CHIP, endogenous in SKOV-3 cells (human (endogenous in SKOV-3)) (UniProt Q9UNE7); assay: co-IP; co-IP of GRP75 with endogenous CHIP and with exogenous myc-CHIP (Supplementary Fig. 6); cells and antibodies not stated in the text shown
[3] = target: T2, GST-proto-Dbl (residues 1-925) (human) (UniProt P10911); assay: co-IP; GRP75 KD (G3) and NC Cos-7 stable cells co-transfected with GST-Dbl constructs and myc-CHIP; 48 h after transfection GST-Dbl immunoprecipitated by mouse anti-GST Ab, CHIP detected by rabbit anti-Myc Ab
T2 sequence: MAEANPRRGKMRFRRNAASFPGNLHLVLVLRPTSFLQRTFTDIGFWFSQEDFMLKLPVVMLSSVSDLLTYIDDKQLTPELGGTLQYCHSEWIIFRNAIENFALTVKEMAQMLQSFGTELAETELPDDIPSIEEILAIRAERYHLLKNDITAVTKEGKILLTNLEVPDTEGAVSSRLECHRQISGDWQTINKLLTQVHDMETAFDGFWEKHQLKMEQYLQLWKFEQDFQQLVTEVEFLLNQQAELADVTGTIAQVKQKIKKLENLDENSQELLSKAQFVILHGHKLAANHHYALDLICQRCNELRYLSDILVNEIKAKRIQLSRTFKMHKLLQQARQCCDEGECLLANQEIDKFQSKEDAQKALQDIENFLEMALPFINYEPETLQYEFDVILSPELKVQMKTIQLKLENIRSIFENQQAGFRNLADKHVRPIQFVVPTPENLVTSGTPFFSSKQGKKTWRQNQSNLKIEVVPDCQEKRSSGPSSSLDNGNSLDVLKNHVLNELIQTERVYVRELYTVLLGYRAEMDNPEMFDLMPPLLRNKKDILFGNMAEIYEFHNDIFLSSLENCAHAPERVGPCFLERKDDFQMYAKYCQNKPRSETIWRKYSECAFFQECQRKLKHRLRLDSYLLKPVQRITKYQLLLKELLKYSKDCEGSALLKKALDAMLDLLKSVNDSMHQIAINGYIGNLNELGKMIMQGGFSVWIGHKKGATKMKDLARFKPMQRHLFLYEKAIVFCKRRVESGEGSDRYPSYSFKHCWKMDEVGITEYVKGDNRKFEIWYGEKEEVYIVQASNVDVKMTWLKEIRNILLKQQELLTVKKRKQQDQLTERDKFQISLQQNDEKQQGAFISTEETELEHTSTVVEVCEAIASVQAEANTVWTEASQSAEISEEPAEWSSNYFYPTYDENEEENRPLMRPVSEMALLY

[4] = target: T2, GST-proto-Dbl (residues 1-925) (human); assay: pull-down; GRP75 KD (G3) and NC Cos-7 stable cell lines co-transfected with GST-Dbl constructs and myc-CHIP; GST-proto-Dbl pulled down from lysate (the legend says by mouse anti-GST Ab); Western blot for CHIP, Hsc70, HSP90
[5] = target: GRP75 (mortalin/HspA9), endogenous in SKOV-3 cells (human (endogenous in SKOV-3)) (UniProt P38646); assay: co-IP; endogenous proteins in SKOV-3 lysate, both directions: mouse anti-GRP75 Ab and rabbit anti-Dbl Ab, isotype-matched IgG as control; Western blot

binding [1]: binds
Molecule: CHIP, endogenous in SKOV-3 cells (from UniProt Q9UNE7 1-303) (enzyme)

Molecule: GRP75 (mortalin/HspA9), endogenous in SKOV-3 cells (from UniProt P38646 47-679)
binding [2]: no binding

binding [3]: binds
binding [4]: binds
Molecule: myc-CHIP (carboxyl terminus of Hsc70/Hsp70/90-interacting protein, myc-tagged) (from UniProt Q9UNE7 1-303) (enzyme)

B1: proto-Dbl (dbl proto-oncogene product), endogenous in SKOV-3 cells (protein, UniProt P10911 1-925)
chain: MAEANPRRGKMRFRRNAASFPGNLHLVLVLRPTSFLQRTFTDIGFWFSQEDFMLKLPVVMLSSVSDLLTYIDDKQLTPELGGTLQYCHSEWIIFRNAIENFALTVKEMAQMLQSFGTELAETELPDDIPSIEEILAIRAERYHLLKNDITAVTKEGKILLTNLEVPDTEGAVSSRLECHRQISGDWQTINKLLTQVHDMETAFDGFWEKHQLKMEQYLQLWKFEQDFQQLVTEVEFLLNQQAELADVTGTIAQVKQKIKKLENLDENSQELLSKAQFVILHGHKLAANHHYALDLICQRCNELRYLSDILVNEIKAKRIQLSRTFKMHKLLQQARQCCDEGECLLANQEIDKFQSKEDAQKALQDIENFLEMALPFINYEPETLQYEFDVILSPELKVQMKTIQLKLENIRSIFENQQAGFRNLADKHVRPIQFVVPTPENLVTSGTPFFSSKQGKKTWRQNQSNLKIEVVPDCQEKRSSGPSSSLDNGNSLDVLKNHVLNELIQTERVYVRELYTVLLGYRAEMDNPEMFDLMPPLLRNKKDILFGNMAEIYEFHNDIFLSSLENCAHAPERVGPCFLERKDDFQMYAKYCQNKPRSETIWRKYSECAFFQECQRKLKHRLRLDSYLLKPVQRITKYQLLLKELLKYSKDCEGSALLKKALDAMLDLLKSVNDSMHQIAINGYIGNLNELGKMIMQGGFSVWIGHKKGATKMKDLARFKPMQRHLFLYEKAIVFCKRRVESGEGSDRYPSYSFKHCWKMDEVGITEYVKGDNRKFEIWYGEKEEVYIVQASNVDVKMTWLKEIRNILLKQQELLTVKKRKQQDQLTERDKFQISLQQNDEKQQGAFISTEETELEHTSTVVEVCEAIASVQAEANTVWTEASQSAEISEEPAEWSSNYFYPTYDENEEENRPLMRPVSEMALLY
binding [5]: no binding
